Hit rate of the full screen: of about 50,000 compounds, about 800 (1.6%) showed an effect of 50% or more. The list shows a part of the results.
The compounds below were run against Bcl-2-like protein 10 (Homo sapiens) (UniProt Q9HD36) (assay: TR3 peptide-Bcl-B binding displacers, biochemical primary FP assay, phenotype converters (AID 1240;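 further: 0% = Bcl-B with tracer peptide and DMSO and 100% = tracer peptide lacking Bcl-B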)). Settings: GST-Bcl-B / FITC-TR3 peptide fluorescence polarization; stronger effect = higher value; compound at 3.75 mg/L.
UniProt Q9HD36, sequence (Q9HD36 whole entry, looked up): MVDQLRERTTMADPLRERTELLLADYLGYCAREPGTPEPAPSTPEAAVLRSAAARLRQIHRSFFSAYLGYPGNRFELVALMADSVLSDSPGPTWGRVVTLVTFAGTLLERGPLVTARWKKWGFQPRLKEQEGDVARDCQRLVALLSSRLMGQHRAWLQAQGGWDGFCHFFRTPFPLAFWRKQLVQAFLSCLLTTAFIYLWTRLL

Row | SMILES | displacement
1 | Cc1cccc(C)c1N(Cc1ccccc1)C(=O)c1c(F)cccc1F | -14.4%
2 | Cn1c2c(c(=O)[nH]c1=O)C(c1ccc(OCc3ccccc3)cc1)C1=C(N2)c2ccccc2C1=O (stereo not drawn) | 11.9%
3 | Cc1ccc(CN2CCN(/N=C/c3cccc(F)c3)CC2)cc1 | 7.6%
4 | CC(C)c1cccc(C(C)C)c1NC(=O)CN1C(=O)c2ccccc2C1=O | 11%
5 | Cc1c(C(=O)Nc2ccccc2-c2ccccc2)cccc1[N+](=O)[O-] | 14.8%
6 | O=C(O)CCCCCN1C(=O)C(=O)/C(=C(/O)c2ccc([N+](=O)[O-])cc2)C1c1ccc(O)cc1 (stereo not drawn) | 9.5%
7 | COc1ccc(CN2CCN(S(=O)(=O)c3ccc(OC)cc3)CC2)cc1 | 0.9%
8 | O=C(Nc1c(F)c(F)c(F)c(F)c1F)c1ccccc1F | 11.3%
9 | COc1cc([N+](=O)[O-])cc2c1NC(c1ccc(Br)cc1)C1CC=CC21 (stereo not drawn) | -10.1%
10 | CC(C)C(=O)Nc1ccc(N(C)C)cc1 | -3.1%
11 | Cc1cccc(OCC(=O)Nc2ccc(Br)cc2)c1C | 1.2%
12 | O=c1/c(=C/c2ccc(-c3ccccc3[N+](=O)[O-])o2)sc2nc3cc(Br)cnc3n12 | 10.5%
13 | O=C1NC(=S)N/C1=C/c1ccc(-c2cc(C(=O)O)ccc2Cl)o1 | 22.7%
14 | COc1ccccc1-c1nc(-c2ccc(Br)cc2)no1 | 14.7%
15 | CCOC(=O)c1cnc2cc(-c3ccc(C)cc3)[nH]n2c1=O | 7.3%
16 | COc1ccc(Cl)cc1/C=C1\C(=O)NC(=O)N(c2cc(C)cc(C)c2)C1=O | -3.4%
17 | Cc1cc(C)nc(SCC(=O)NN=C2CCCCCC2)n1 | 3.9%
18 | COc1ccc(C2Nc3ccccc3C(=O)N2c2ccc(C)cc2)cc1Cn1nnc2ccccc21 (stereo not drawn) | -2.1%
19 | O=c1[nH]c(NCCCO)nc2sc3c(c12)CCCC3 | -12.9%
20 | O=C(COc1ccc(C2CCCCC2)cc1)Nc1cc(C(=O)O)cc(C(=O)O)c1 | -17.5%
21 | CCSc1nnc(NC(=O)C2CC2c2ccccc2)s1 (stereo not drawn) | 8.2%
22 | S=c1[nH]nc(NNc2ccccc2)n1Nc1ccccc1 | 6.7%
23 | CCOC(=O)c1c(NC(=O)c2ccc(C)c([N+](=O)[O-])c2)sc(C(=O)Nc2ccccc2C(F)(F)F)c1C | -12.9%

Row | SMILES | displacement
24 | Cc1cc(OCC(=O)Nc2cccc(Cl)c2)cc(C)c1Cl | -7.2%
25 | COC(=O)C1=C(C)NC(=O)NC1c1ccc(OC(=O)c2cccs2)c(OC)c1 (stereo not drawn) | -4.5%
26 | CCOc1ccccc1/C=N/NC(=O)CSc1nc2ccccc2n1Cc1ccccc1 | 6.8%
27 | COc1cccc(C(=O)Nc2ccc(N3CCN(C(C)=O)CC3)cc2)c1 | 2.2%
28 | O=C(N/N=C/c1cccc(O)c1O)c1cccc(Cl)c1 | 5.1%
29 | Cc1nn(C(=O)c2cccnc2)c(C)c1Sc1ccc([N+](=O)[O-])cc1 | 8.9%
30 | COc1ccccc1/C=C/C(=O)NC1CCCCC1 | -3.3%
31 | Cc1ccc(C(=O)NCc2ccc(S(N)(=O)=O)cc2)cc1C | 0.9%
32 | COC(=O)c1cccc(NC(=O)COc2ccc(Cl)cc2)c1 | 3.8%
33 | O=C1c2cccc3ccc(I)c(c23)C(=O)N1Oc1ccc([N+](=O)[O-])cc1[N+](=O)[O-] | 8.5%
34 | NS(=O)(=O)c1ccc(CNC(=S)Nc2ccccc2)cc1 | -11.9%
35 | CC(C)c1ccc(-c2cc(C(=O)N3CCCC3)c3ccccc3n2)cc1 | -6.5%
36 | O=S(=O)(Nc1cccc(Cl)c1Cl)c1ccc2ccccc2c1 | -11.2%
37 | NC(=NC(=NS(=O)(=O)c1ccccc1)c1ccccc1)SCc1ccccc1 | 10.7%
38 | Cc1ccc2[nH]c3nc(N/N=C/c4c(O)ccc5ccccc45)nnc3c2c1 | 0.1%
39 | COc1cc(NC(=O)c2cc3ccccc3o2)ccc1NC(=O)c1ccco1 | 2.5%
40 | COc1cc(N(C)C)c([N+](=O)[O-])cc1C(=O)N1CC(C)NC(C)C1 (stereo not drawn) | 7.1%
41 | COc1ccc(/C(O)=C2/C(=O)C(=O)N(CCCCCC(=O)O)C2c2ccc3c(c2)OCO3)cc1 (stereo not drawn) | 3.9%
42 | Cc1ccc(-c2ccc(/C=C3/SC(=S)NC3=O)o2)cc1Cl | 26.1%
43 | Cc1nc2ccccc2n1S(=O)(=O)c1ccc(Cl)cc1Br | -2.7%
44 | CCOC(=O)c1cccc(/C=C/N(C)C)c1[N+](=O)[O-] | 5.2%
45 | Cc1cccc(OCC2=N/C(=C\N(C)C)C(=O)O2)c1 | 30.1%
46 | O=C(Nc1cccc([N+](=O)[O-])c1)c1sc2ccccc2c1Cl | 17%

Row | SMILES | displacement
47 | COc1cc(-c2noc(-c3ccc(F)cc3)n2)cc(OC)c1OC | 12.1%
48 | COc1ccc2nc(SCC(=O)NCc3ccccc3)[nH]c2c1 | 4.5%
49 | Cc1cc(/C=N/N2C(=O)c3ccccc3C2=O)c(C)n1-c1ccc(F)cc1 | -8.8%
50 | CN1CCN(C(=O)/C(=C/c2cccc3ccccc23)NC(=O)c2ccccc2)CC1 | 4%
51 | O=C(Cc1ccc(Cl)cc1)Nc1cc(C(=O)O)cc(C(=O)O)c1 | -11.6%
52 | COc1ccc(OCCCCOc2ccc(C)cc2C)cc1 | 9.6%
53 | Cc1ccc(S(=O)(=O)Nc2ccc3c(c2)nc(C)n3Cc2ccccc2)cc1 | 5.7%
54 | COc1ccc(C(=O)Nc2ccc(S(=O)(=O)NC(C)=O)cc2)cc1[N+](=O)[O-] | 11.6%
55 | COc1ccc(NC(=O)CN(c2ccc(C)c(Cl)c2)S(C)(=O)=O)c(OC)c1 | -0.6%
56 | Cn1cc(Cl)c(C(=O)OCC(=O)Nc2ccccc2)n1 | 15.4%
57 | Cc1sc(NC(=O)NC2CCCCC2)nc1-c1ccccc1 | -12.1%
58 | COc1cccc(NC2=C(Cl)C(=O)N(c3ccc(Cl)cc3)C2=O)c1 | -8.8%
59 | Cc1ccc(S(=O)(=O)N(Cc2ccccc2)c2ccccc2C(=O)NCc2ccco2)cc1 | 11%
60 | COc1cc(Br)c(C2C3=C(CC(C)(C)CC3=O)OC3=C2C(=O)CC(C)(C)C3)cc1OC | 8.9%
61 | CCOC(=O)c1cc(-c2ccc(C=C3C(=O)N(C)C(=O)N(C)C3=O)o2)ccc1Cl | 111%
62 | CCN(CC)C(=O)C(=O)N/N=C/c1ccc2c(c1)OCO2 | -2.9%
63 | COc1ccc(NC(=O)Nc2ccccc2)c(OC)c1 | 6.8%
64 | COc1ccc(/C(C)=N\N2CCN(Cc3ccc(C)cc3)CC2)cc1 | -6.7%
65 | O=C(NC(=S)Nc1cccc(NC(=O)c2ccco2)c1)c1ccco1 | -2.4%
66 | COc1ccc2nc(NC(=O)c3cc4c(s3)CCCC4)sc2c1 | 8.8%
67 | O=C(N/N=C/c1cc(Br)cc(Br)c1O)C(Oc1ccccc1)Oc1ccccc1 | 3.3%
68 | CCOc1ccc(C(=O)N2CCCc3ccccc32)cc1OCC | 14%

From PubChem BioAssay AID1240 (Sanford-Burnham Center for Chemical Genomics, 2008)
